Assay results published in PubChem BioAssay AID360 (National Center for Advancing Translational Sciences (NCATS), 2006).
The campaign covered roughly 48,000 compounds. About 550 (1.1%) were called active. Inconclusive results (about 4%) are left out. No stated cut-off is given here; in the data, active means potency below about 15 µM; inconclusive means mostly about 16 µM to 33 µM; inactive means weaker than that. The list shows a part of the results.

Molecular target: Lysosomal acid glucosylceramidase (Homo sapiens) (UniProt P04062)
Assay: Glucocerebrosidase;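 further: the screen sought inhibitors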
Settings: purified enzyme, resorufin glucoside fluorescence (screen aimed at inhibitors), 20 min; series mostly up to 77 µM
Summary of the method: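 Wild-type enzyme at 0.2 nM final in 50mM citric acid/KH2PO4, 10mM sodium taurocholate, 0.01% tween-20, pH 5.9, with resorufin beta-D-glucopyranoside at 30 uM final. Compounds titrated, 20 min at RT, red fluorescence read; AC50 from titration.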
Potency means the concentration at half of the fitted maximal effect.

UniProt P04062, sequence (P04062 whole entry, looked up): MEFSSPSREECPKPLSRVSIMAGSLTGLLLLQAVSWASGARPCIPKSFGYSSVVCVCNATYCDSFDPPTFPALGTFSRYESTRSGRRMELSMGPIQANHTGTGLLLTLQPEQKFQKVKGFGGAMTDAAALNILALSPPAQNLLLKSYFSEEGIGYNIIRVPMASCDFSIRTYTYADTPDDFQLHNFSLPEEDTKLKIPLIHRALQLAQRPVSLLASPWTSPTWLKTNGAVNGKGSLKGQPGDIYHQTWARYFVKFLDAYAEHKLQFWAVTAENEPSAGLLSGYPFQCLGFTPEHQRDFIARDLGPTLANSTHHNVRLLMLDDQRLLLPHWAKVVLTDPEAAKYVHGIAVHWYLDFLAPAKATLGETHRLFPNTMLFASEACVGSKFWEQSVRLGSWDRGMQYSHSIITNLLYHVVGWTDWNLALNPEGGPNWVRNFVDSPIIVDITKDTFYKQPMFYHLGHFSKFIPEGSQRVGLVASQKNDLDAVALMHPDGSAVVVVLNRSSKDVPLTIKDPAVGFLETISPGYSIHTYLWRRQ

Potency, inactive:
O=C(CCCSc1nc2ccccc2s1)Nc1nccs1 > 76.9 µM
Cc1ccc(CNC(=O)CCCn2c(=O)c3ccccc3n(CC(=O)NC3CCCC3)c2=O)cc1 > 76.9 µM
Cn1c(SCC(=O)NC2CCCCC2)nnc1-c1cc2cc(Cl)ccc2o1 > 76.9 µM
CC(=O)Nc1cccc(C(=O)OCc2ccccc2)c1 > 76.9 µM
O=C(CN1CCN(C(=O)N2CCOCC2)CC1)Nc1ccc(Br)cc1 > 76.9 µM
CCS(=O)(=O)N1CCC(C(=O)NCCN2CCN(Cc3ccccc3)CC2)CC1 > 76.9 µM
Cc1ccc2cccc(O)c2[n+]1[O-] > 76.9 µM
CC(C)NC(=O)CCS(=O)(=O)c1ccc(Br)s1 > 76.9 µM
COC(=O)c1sc(S(=O)(=O)NCc2cccs2)c(C(=O)OC)c1C > 76.9 µM
CC(=O)ON1C(C)(C)CC(OC(=O)c2ccccc2)CC1(C)C > 76.9 µM
CCc1ccccc1NC(=O)CCc1nc(-c2ccc(C)cc2)no1 > 76.9 µM
CN(CP(=O)(O)CN(C)S(C)(=O)=O)S(C)(=O)=O > 76.9 µM
COc1ccc(-c2nnc(CSc3nnc(-c4ccncc4)n3C3CCCCC3)o2)cc1OC > 76.9 µM
CC(C)c1nnc(NC(=O)c2cnccn2)s1 > 76.9 µM
O=c1c2c(-c3ccco3)csc2nc(SCc2cn3cccnc3n2)n1-c1ccccc1 > 76.9 µM
CSCCC(NS(=O)(=O)c1ccc2c(c1)OCCO2)C(=O)NCCc1ccccn1 (configuration not stated) > 76.9 µM
CC(=O)Nc1nn(C)c2nc3cc(C)ccc3cc12 > 76.9 µM
O=S1(=O)NC(=NCc2ccco2)c2ccccc21 > 76.9 µM
N#Cc1c(NCc2ccccc2)ccnc1NCc1cccnc1 > 76.9 µM
CCc1cc2c(=O)n(C(C)C(=O)OC3CCCCC3)cnc2s1 (configuration not stated) > 76.9 µM
CCCCS(=O)(=O)NC1=NCN(C2CCN(Cc3ccccc3)CC2)CN1 > 76.9 µM
Cc1ccc(N(C(=O)C2CCCC2)C2C=CS(=O)(=O)C2)cc1 (configuration not stated) > 76.9 µM
COC(=O)c1ccc(C)c(NC(=O)Cc2coc3cc(OC)ccc23)c1 > 76.9 µM
O=C(NCC(=O)N(c1ccc2c(c1)OCO2)C(C(=O)NC1CCCC1)c1ccncc1)c1ccco1 (configuration not stated) > 76.9 µM
O=C(CSC1=NCCS1)N1CCc2ccccc21 > 76.9 µM
Cc1cc(C(F)(F)F)nn1CC(=O)N1CCCC1 > 76.9 µM
O=C(Nc1nnc(CC(=O)N2CCOCC2)s1)c1cccs1 > 76.9 µM
COc1ccc2c(c1)C(C)CC(C)(C)N2C(=O)CSc1ncn[nH]1 (configuration not stated) > 76.9 µM
O=C1c2ccccc2NC(c2ccc3c(c2)OCCO3)N1c1ccc2c(c1)OCCO2 (configuration not stated) > 76.9 µM
Cc1cc(C)c2c(n1)nn1c(NCCCN3CCOCC3)cc(C)nc21 > 76.9 µM
Cn1c(CCNC(=O)c2ccccc2)nc2cc(NC(=O)c3ccco3)ccc21 > 76.9 µM
Cc1onc(-c2ccccc2Cl)c1C(=O)NCc1ccccn1 > 76.9 µM
Cc1noc(C)c1CSc1nnc2n(-c3ccccc3)c(=O)c3ccccc3n12 > 76.9 µM
CC(=O)NCCc1csc(-c2ccccc2)n1 > 76.9 µM
COc1ccccc1NC(=O)CSc1nc2nc(C)cc(C)c2c(=O)[nH]1 > 76.9 µM
C=CCSc1n[nH]c(-c2ccc(OC)cc2)n1 > 76.9 µM
O=C(COc1nnnc2ccccc12)N1CCCc2ccccc21 > 76.9 µM
CCCCC(=O)NCCc1cc2ccc(OC)cc2[nH]c1=O > 76.9 µM
COC(=O)Nc1c(-c2ccccc2)nc2ccccn12 > 76.9 µM
Cc1noc(NS(=O)(=O)c2ccc(NC(=O)c3ccoc3C)cc2)c1C > 76.9 µM
CCCCNC(=O)CCCn1c(=S)[nH]c2cc3c(cc2c1=O)OCO3 > 76.9 µM
CCC(Sc1nnnn1-c1ccccc1)C(=O)NC(C)c1ccccc1 (configuration not stated) > 76.9 µM
Cc1ccc(-c2cc(C(F)(F)F)c(C#N)c(SCCC#N)n2)o1 > 76.9 µM
O=C(CCSc1nc(-c2ccco2)cc(C(F)(F)F)n1)NCC1CCCO1 (configuration not stated) > 76.9 µM
CCc1c(C(=O)NCc2ccccc2Cl)[nH]c(C)c1C(C)=O > 76.9 µM
CC(C)NC(=O)CSc1nnc2sc3ccccc3n12 > 76.9 µM
COC(=O)NC1(C(F)(F)F)C(=O)NC(C)=C1C(=O)OC (configuration not stated) > 76.9 µM
CC(=O)c1ccccc1NS(=O)(=O)c1c(C)nn(-c2ccccc2)c1C > 76.9 µM
Cc1ccc(NC(=O)CN2CCCCCC2)c(Br)c1 > 76.9 µM
CCOC(=O)Nc1ccc(S(=O)(=O)Nc2cc(C)on2)cc1 > 76.9 µM
Cc1ccccc1-n1c(SCC(=O)c2cc(C)n(C)c2C)nnc1-c1ccncc1 > 76.9 µM
COc1cccc(C(=O)Cn2c(=N)n(C)c3ccccc32)c1
O=C(Nc1cccc(Br)c1)c1ccn[nH]1 > 76.9 µM
CS(=O)(=O)N1CCN(c2ccc(NC(=O)c3ccc(Br)o3)cc2)CC1 > 76.9 µM
Cc1oc2nc(SCC(=O)N3CCCCC3)nc(N)c2c1C > 76.9 µM
Cc1cc(Nc2ccc(N3CCC(C)CC3)cc2)n2ncnc2n1 > 76.9 µM
COc1cccc(OC)c1C(=O)Nc1cc(Cl)ccc1N1CCOCC1 > 76.9 µM
Cc1nnc(C)c2c(C)n(Cc3ccc4c(c3)OCO4)c(C)c12 > 76.9 µM
CCn1cc(NC(=O)Nc2ccccc2C(=O)OC)c(C(N)=O)n1 > 76.9 µM
COc1ccc(CNC(=O)C(OC(C)=O)c2ccccn2)cc1 (configuration not stated) > 76.9 µM
CCC(CC)n1[nH]c(=O)c2c(C)cc(C)nc21 > 76.9 µM
CCOC(=O)c1cc2c(=O)n3ccccc3nc2n(C(C)C)c1=NC(=O)c1ccncc1 > 76.9 µM
O=C(NCCS(=O)CCNC(=O)C(F)(F)F)C(F)(F)F > 76.9 µM
O=c1c2[nH]c3ccccc3c2ncn1Cc1ccncc1 > 76.9 µM
CN1C(=O)c2ccccc2C(C(=O)NCC2CCCO2)C1c1c[nH]c2ccccc12 (configuration not stated) > 76.9 µM
O=C(CN1CCN(Cc2ccc3c(c2)OCO3)CC1)Nc1ccc2c(c1)OCCO2 > 76.9 µM
COc1cc2[nH]c(=S)n(NC(=O)CC(C)C)c(=O)c2cc1OC > 76.9 µM
COc1cccc(NC(=O)N(Cc2ccco2)C(C)c2cccs2)c1 (configuration not stated) > 76.9 µM
O=C(CC1N=C2c3ccccc3N=C(SCc3ccc(F)cc3)N2C1=O)NCc1ccco1 (configuration not stated) > 76.9 µM
CC1(C)CC(=O)C=C(Nc2ccccc2O)C1 > 76.9 µM
Cc1cc(=O)n2c(n1)OC(CO)C2 (configuration not stated) > 76.9 µM
Cc1cc(C)cc(NC2=NCC(=O)N2Cc2ccccc2)c1 > 76.9 µM
Cc1cc2c(c(=O)n1CCN(C)C)C(c1ccc(Cl)cc1)C(C#N)=C(N)O2 (configuration not stated) > 76.9 µM
COc1ccc(OC)c(NS(=O)(=O)c2ccc3c(c2)n(C)c(=O)n3C)c1 > 76.9 µM
CCOC(=O)c1oc2ccccc2c1NC(=O)COc1ccc(F)cc1 > 76.9 µM
O=C(Cn1nnc(-c2ccc(CN3CCOCC3)cc2)n1)NC1CCCCC1 > 76.9 µM
CC1(C)CNC(=O)C=C(c2ccccc2)C1 > 76.9 µM
c1ccc(Cn2nnnc2C(c2cccs2)N2CCOCC2)cc1 (configuration not stated) > 76.9 µM
O=C(/C=C/Nc1ccc(F)c(Cl)c1)c1ccco1 > 76.9 µM
CCOC(=O)c1oc2ccccc2c1NC(=O)COc1cccc(OC)c1 > 76.9 µM
CCN(CC)S(=O)(=O)c1cccc(-c2nnc(SCC(=O)NC)n2CCc2ccccc2)c1 > 76.9 µM
CCCCOC(=O)CSc1nc2c(cc1C#N)C(=O)CC(C)(C)C2 > 76.9 µM
O=C(CN1C(=O)c2ccccc2C1=O)Nc1ccc(N2CCOCC2)cc1 > 76.9 µM
COCCn1nnnc1C1(N(Cc2cc3cc(C)ccc3[nH]c2=O)CC2CCCO2)CCN(C)CC1 (configuration not stated)
COc1ccccc1N(CC(=O)Nc1ccccc1C(=O)NCC(C)C)S(C)(=O)=O > 76.9 µM
Cc1nc(COC(=O)c2ccc(CO)cc2)cs1 > 76.9 µM
CC(C)CCn1cnc2c(cnn2-c2ccc(F)cc2)c1=O > 76.9 µM
Cc1noc(C)c1S(=O)(=O)N1CCCC(C(=O)N2CCC(C)CC2)C1 (configuration not stated) > 76.9 µM
COc1cccc(=O)c2c(C)oc(C)c12 > 76.9 µM
Cc1ccc(-c2noc(-c3ccccc3C(=O)NCC3CCCO3)n2)cc1 (configuration not stated) > 76.9 µM
O=C(Cn1cnc2c(nnn2Cc2ccc(F)cc2)c1=O)N1CCCc2ccccc21 > 76.9 µM
COc1ccccc1C(=O)Nc1ccc(S(=O)(=O)Nc2cc(C)on2)cc1
